In PubChem BioAssay AID1645887 (National Center for Advancing Translational Sciences (NCATS), 2021):
Values joined by “and” are separate entries in the source; they are usually repeats but may differ in a detail not shown here. Equal values may be shown once. About 40 (0.2%) of roughly 16,000 compounds were called active. Inconclusive results (about 1%) are left out. Calls follow the shape of the dose curve; as a rule, active = well fitted activation curve with a large enough effect; inconclusive = small, poorly fitted or top-dose-only effect, or another doubt; inactive = no such curve, though single readings can be large or run the other way. The list shows a part of the results.

target: Rap guanine nucleotide exchange factor 4 (Homo sapiens) (UniProt Q8WZA2); test: Validation qHTS for agonist of cAMP-regulated guanine nucleotide exchange factor 4 (EPAC2); conditions: EPAC2 Rap1B BODIPY-GDP exchange, fluorescence; activation: active compounds read high;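 also: exchange makes BODIPY-GDP fluorescence drop when released from Rap1B; series mostly up to about 150 µM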
Sequence of UniProt Q8WZA2 (Q8WZA2 whole entry, looked up): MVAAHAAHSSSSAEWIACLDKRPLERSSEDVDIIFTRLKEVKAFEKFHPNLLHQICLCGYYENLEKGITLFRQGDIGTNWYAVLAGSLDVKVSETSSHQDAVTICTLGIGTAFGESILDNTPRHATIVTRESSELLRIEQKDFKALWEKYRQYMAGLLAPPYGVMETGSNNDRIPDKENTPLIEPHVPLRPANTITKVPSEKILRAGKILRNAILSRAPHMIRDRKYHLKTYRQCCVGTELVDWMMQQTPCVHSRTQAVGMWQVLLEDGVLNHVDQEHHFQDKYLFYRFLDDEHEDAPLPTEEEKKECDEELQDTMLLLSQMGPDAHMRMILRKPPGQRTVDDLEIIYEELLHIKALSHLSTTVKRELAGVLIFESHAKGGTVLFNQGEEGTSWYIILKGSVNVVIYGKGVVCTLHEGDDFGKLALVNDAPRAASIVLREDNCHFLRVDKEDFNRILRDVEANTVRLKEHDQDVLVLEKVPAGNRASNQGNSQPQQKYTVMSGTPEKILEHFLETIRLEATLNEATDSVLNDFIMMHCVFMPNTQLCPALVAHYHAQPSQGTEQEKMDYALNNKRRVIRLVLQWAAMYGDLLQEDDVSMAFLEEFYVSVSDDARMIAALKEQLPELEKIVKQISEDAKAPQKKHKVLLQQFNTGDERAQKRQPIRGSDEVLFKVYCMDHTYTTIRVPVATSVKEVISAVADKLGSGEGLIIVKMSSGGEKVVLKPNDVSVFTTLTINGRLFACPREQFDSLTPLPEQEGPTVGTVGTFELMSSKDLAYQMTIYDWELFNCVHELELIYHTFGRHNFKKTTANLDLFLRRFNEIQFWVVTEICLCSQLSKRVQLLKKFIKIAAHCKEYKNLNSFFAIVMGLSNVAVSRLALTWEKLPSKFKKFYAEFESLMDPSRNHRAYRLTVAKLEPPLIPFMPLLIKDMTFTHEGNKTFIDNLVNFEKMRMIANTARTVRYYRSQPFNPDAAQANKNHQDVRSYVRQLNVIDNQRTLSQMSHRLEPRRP
Outline: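 Fluorescent exchange assay: 100 nM EPAC2 with 250 nM RAP1B-BODIPY-GDP and 50 uM GDP; compound added, 5 min at room temperature, then read (ex 480/em 540 nm) every 5 min for 30 min. Normalized to 6.5 mM cAMP agonist control.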
% is scaled to controls: 0 for no effect and ±100 for the full control effect.

activation, inactive:
O=C(NCC1Cc2cc(F)cc(-c3cnccn3)c2O1)c1cccc(-c2ccccc2F)c1 (stereo not given) 3.22%
C[C@]12CCC3c4ccc(OS(=O)(=O)O)cc4CCC3C1CCC2=O (stereo not given in full) 6.01%
Nc1ncnc2c1[nH]c(=O)n2C1CC(O)C(CO)O1 (stereo not given) -10.3%
COC(=O)CCc1ccc(OCC(O)CNC(C)C)cc1 (stereo not given) -3.23%
CN1CCN(c2nc(-c3ccc(N(C)C)cc3)nc3ccccc23)CC1 -14%
C(=C\c1cccs1)/c1ccccn1 -14.5%
CC(C)c1nc2cccnc2n1C1CCN(C(=O)Cn2cccn2)CC1 -4.44%
CC1CN(CC(=O)NCCc2ccncc2)Cc2ccccc2O1 (stereo not given) 0.974%
CCNc1ncc2nc(-c3ccc(OC)cc3)c(=O)n(CCOC)c2n1 -4.06%
O=C(c1ccccc1F)N(Cc1cc2cc3c(cc2nc1N1CCOCC1)CCC3)CC1CCCO1 (stereo not given) 5.94%
CCCCC/C=C\CC1OC1CCCCCCCC(=O)O (stereo not given) -24.4%
Nc1nc(N)c(-c2ccccc2)s1 -11%
O=c1c(CN2CCOc3ccc(CN4CCC(Oc5cccnc5)CC4)cc3C2)coc2ccccc12 -1.96%
COc1ccccc1C1CN(CC(=O)N[C@H]2CCCCNC2=O)Cc2ccccc2O1 (stereo not given in full) -11.9%
COc1cc(/C=C(\C#N)C(=O)c2ccc(O)c(O)c2)cc(I)c1O 9.9%
CN1CCc2cc(NC(=O)Nc3cccnc3)ccc21 -33%
Cc1cccc2cc(CN(CC3CCCO3)C(=O)C3CC3)c(N(C)C)nc12 (stereo not given) -3.93%
COc1ncc2nc(-c3cn(C)c4ccccc34)c(=O)n(C[C@H]3CCCO3)c2n1 -17.5%
Clc1ccccc1-c1cc(NCc2cccnc2)ncn1 -23.1%
N#Cc1cccc(NC(=O)N2CCC3(CC2)CCN(C(=O)c2cnccn2)CC3)c1 -0.31%
COc1cccc(N(C)C(=S)Oc2ccc3c(c2)CCCC3)n1 -34.2%
CCCCCCCCCC(=O)OCC(CO)OC(=O)CCCCCCCCC (stereo not given) -24.1%
COc1cc(N)c(Cl)cc1C(=O)CCC1CCN(CCNS(C)(=O)=O)CC1 7.52% and -1.52%
CCCNC(C)C(=O)Nc1c(C)csc1C(=O)OC (stereo not given) -12.6%
Cc1c(NC(C)C)c(=O)n(-c2ccccc2)n1C -23.5%
c1cncc(OC2CCN(Cc3ccc4c(c3)CN(Cc3ccc5c(c3)OCCO5)CCO4)CC2)c1 -7.51%
Cn1c(=O)c(-c2ccc(Cl)cc2)nc2cnc(Nc3ccccc3)nc21 -6.53%
O=c1c(-c2ccccc2)nc2cnc(Oc3cccc(Cl)c3)nc2n1C1CC1 4.2%
O=c1ccn([C@H]2C[C@H](O)[C@@H](CO)O2)c(=O)[nH]1 -3.76%
CN(C)CC(C)(O)c1ccc2c(c1)CN(Cc1cnn(-c3ccccc3)c1)CCO2 (stereo not given) -2.18%
Cc1nc2cnc(N3CCOCC3)nc2n(CCc2ccccc2)c1=O -5.3%
N[C@@]1(C(=O)O)CN[C@@H](C(=O)O)C1 -1.1%
CC(C)[C@@H](C)/C=C/[C@@H](C)[C@H]1CC[C@H]2/C(=C/C=C3\C[C@@H](O)CC[C@@H]3C)CCC[C@]12C -66.2%
NS(=O)(=O)Cc1noc2ccccc12 -7.64%
CCC1(C2CCN(C(=O)c3cc4ccccc4o3)CC2)NC(=O)N(CCc2scnc2C)C1=O (stereo not given) -9.8%
Cc1nc2cnc(N3CCOCC3)nc2n(Cc2cccs2)c1=O -11.6%
COc1ccc2[nH]cc(CCNc3nc(-c4cccc(NS(C)(=O)=O)c4)nc4ccccc34)c2c1 -14.5%
CC[C@H](/C=C/[C@@H](C)[C@H]1CC[C@H]2C3CC=C4C[C@@H](O)CC[C@]4(C)C3CC[C@]12C)C(C)C (stereo not given in full) -11.4%
CN(C)CCN(Cc1ccc(Cl)cc1)c1ccccn1 -1.37%
O=C(c1ccc(N2CCC(NCCCn3ncc4ccccc43)CC2)cc1)N1CCc2ccccc2C1 -4.39%
CCCCC[C@H](O)/C=C/[C@@H]1[C@@H](CC(=O)CCCCC(=O)O)[C@@H](O)C[C@H]1O -4.2%
Cc1onc(-c2c(Cl)cccc2Cl)c1C(=O)NC1C(=O)N2C1SC(C)(C)C2C(=O)O (stereo not given) 1.77%
C=C(CO)C1Cc2c(ccc3c2OC2COc4cc(OC)c(OC)cc4C2C3=O)O1 (stereo not given) -7.49%
O=C(/C=C/c1ccc(F)cc1)NCC1Cc2cccc(-c3ncccn3)c2O1 (stereo not given) -13.9%
COc1ccc2c(c1)C(=O)N(CCc1ccc(S(=O)(=O)NC(=O)NC3CCCCC3)cc1)C(=O)C2(C)C -4.49%
O=C(Oc1ccccc1)N1CCC2(CCCN(c3ncccn3)C2)CC1 -11.2%
O=c1c(-c2ccc(F)cc2)nc2cnc(N3CCOCC3)nc2n1-c1ccccc1 -11.9%
CCn1c(-c2ccccc2F)nc2cc(NC(C)=O)cc(C(=O)N3CCC[C@H]3C(=O)OC)c21 -5.06%
CC1CN(CCNC(=O)C2CCCc3c2[nH]c2ccccc32)Cc2ccccc2O1 (stereo not given) -12%
Cc1cn([C@H]2C[C@H](N=[N+]=[N-])[C@@H](CO)O2)c(=O)[nH]c1=O -6.59% and 5.71% and 10%
COC(=O)[C@@H](N)CS -8.69%
COc1ccc([C@@H]2Sc3ccccc3N(CCN(C)C)C(=O)[C@@H]2OC(C)=O)cc1 -3.77% [middle of 4 runs]
O=C(Nc1cccc(F)c1)N1CCC2(CC1)CCN(C(=O)c1ccco1)CC2 -8.83%
COC(=O)C1OC(=O)C2O[C@@]23[C@]2(C)C(OC(C)=O)CC4C(C)(C)C(=O)CC[C@]4(C)C2CC[C@@]13C (stereo not given in full) -5.23%
Cc1ccc(CN2CCOc3ccc(CN4CCC(O)(c5cccnc5)CC4)cc3C2)cc1C -0.247%
